In publication PMC12136788:
Numbering of substitutions follows the chain as printed. The list shows a part of the results.

T1: UNK ZnF1-3 (human, UniProt Q9C0B0 31-174)
T1 sequence: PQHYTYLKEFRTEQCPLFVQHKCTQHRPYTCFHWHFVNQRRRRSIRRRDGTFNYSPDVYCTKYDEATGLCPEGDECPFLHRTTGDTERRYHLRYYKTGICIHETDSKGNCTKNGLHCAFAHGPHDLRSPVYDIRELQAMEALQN

B1: 193375006_193376780_2445_CDS_ENSG00000198836_ENST00000392438|human|control|control (ssRNA)
RNA: GGGAGUUCUACAGUCCGACGAUCCUUGAGACGAGCCUGCAGAGCCUCUUCCAUAAAAUAAAUAGCUGCAUCCCAUUGCUGUUUAUCAGAUAUGGAUCGGUCUUCCAAAGCAUUGUGUUGAAUAACCCUCAAGCUGUCCUCCGCCAACAGAGGAUUGAGCAUCA
B2: 95940815_95940935_2955_3pUTR_ENSG00000164938_ENST00000448464|human|control|control (ssRNA)
RNA: GGGAGUUCUACAGUCCGACGAUCGAAGUCAAAACGGAAGGGGCAAUAAGGAGAAAGGGGGAAUCUAACUCUUGUUCUAAAGAGACAUUCUGGCACUUCAUCACAGCCAGUAGAAGAACAAUGUAAAACCUCCAUCUCACUACACAACAGAGGAUUGAGCAUCA
B3: 121471587_121472132_1816_CDS_ENSMUSG00000028127_ENSMUST00000029770|mouse|control|control (ssRNA)
RNA: GGGAGUUCUACAGUCCGACGAUCAACACUGUCCCAGCCGCCUUCUCGCUCAAGGAUGUGACCCAGCUGCACAUUGUCCAAGUACUCCUUCAGCACCUGGUCAGAGAUCCCCCUCUUCUUCUGAUCUUCCUUUCCAUCUGGAUACAACAGAGGAUUGAGCAUCA
B4: chr2:160605069:160605070:+_ENSG00000136536_ENST00000409591|hu_mus|FALSE|FALSE (ssRNA)
RNA: GGGAGUUCUACAGUCCGACGAUCAGCCCCAAGGGAGUCACCCUGUGCUUCAAGAUGAACUACUUCAUUUGAAUCUCUUCUGAAAAUAUGAGAUCUAGGUGGUACAUCUGACGUAGACAUUCUUGAAGACUCAUCCCUUCCCUCCAACAGAGGAUUGAGCAUCA
B5: chr14:66974463:66974464:+_ENSMUSG00000022044_ENSMUST00000074523|mus_hu|mus_mus_mus_hu_False|18_48 (ssRNA)
RNA: GGGAGUUCUACAGUCCGACGAUCUUGUAGGACGACUUAUUCAGGGGAUCGGCCAGGAAGCAGGAGCAGAACAAGGACACCAGCGGGAGUUCCUUCAUCUUCUCUUUGUAGGCAGCAAGAGUCAUGUUUCUGGGAUCUGGUGGCCAACAGAGGAUUGAGCAUCA
B6: 56575273_56575393_1438_CDS_ENSMUSG00000013236_ENSMUST00000086828|mouse|control|control (ssRNA)
RNA: GGGAGUUCUACAGUCCGACGAUCCAUGGUGGUGGCGCUGAGCAUGCGGGCCUGAACAUUCCUGGGAGCGCUGGCUGGUGCCUGCUCACCUGUGCGGGUCACCACCGAUUCACUGGGAGGGCCCUGGCCAAUGGAGUUGACAGCCAACAGAGGAUUGAGCAUCA
B7: chr3:148522152:148522153:-_ENSMUSG00000028184_ENSMUST00000106128|mus_mus|FALSE|FALSE (ssRNA)
RNA: GGGAGUUCUACAGUCCGACGAUCGGGUGACGUAUCGUGGUAGUUGGCAUAGUUGAUGAUAGCCUCGCCGCUCUUGAUUCUAGUCCUCAAGUCAAACUUAACAAUGUUUCUGGUUCUUUCCUUGUUAAAGAAGACGGCUCCAUCCAACAGAGGAUUGAGCAUCA
B8: chr22:19452774:19452775:-_ENSG00000070010_ENST00000399523|hu_hu|hu_hu_hu_mus_False|48_108 (ssRNA)
RNA: GGGAGUUCUACAGUCCGACGAUCCUUUUCAUUAUAGUUGAUAGCAAUCACAUCUCCAGUCGUCAGACAGGCGAAGUUUCUCAAUGCGUUUUCUAAUACCGCUUUAGGGUUGGUAAUAUCCAGGAAGUCUGGGCUCUGAGGCUGCAACAGAGGAUUGAGCAUCA
B9: chr5:33170631:33170632:-_ENSMUSG00000054280_ENSMUST00000120129|mus_hu|FALSE|FALSE (ssRNA)
RNA: GGGAGUUCUACAGUCCGACGAUCGGGAUGGCACGGUGUAGACAUCUGCUUUGGUAUGUGACUAACCAAGCUCUUGGUAGGUGCUGUUUCAGGUUCUAAUCGUGUAGGUGCAGACAGAGUACACAAACUGAGAAGUCUGUGCGCCAACAGAGGAUUGAGCAUCA
B10: chr1:244855233:244855234:+_ENSG00000121644_ENST00000302550|hu_mus|hu_hu_hu_mus_True|28_98 (ssRNA)
RNA: GGGAGUUCUACAGUCCGACGAUCCAUCAGAUGGUAGGCAUUGCCUUUAUACUCUUUCCCCAGUUCUUCUACAAUUUUCUCUAUAUCAUCUUCUAGAAAGUCCGUACUCCCUAAAACAACAGCUUCUUUAAAUUUAAAUGUUUCCAACAGAGGAUUGAGCAUCA
B11: chr6:82862619:82862620:-_ENSMUSG00000000627_ENSMUST00000000641|mus_mus|FALSE|FALSE (ssRNA)
RNA: GGGAGUUCUACAGUCCGACGAUCAACCUGCUUGUAAUUUCCUACACACUUUUCUGGGUUCCUUUUGUCAUCCCUCAAUAGCUAGAAUGUUGUGAAGUUCAUUUUAAAUGGAAGCCAAGGAAAGAGGGCUCAGCCUCCACUCCACAACAGAGGAUUGAGCAUCA
B12: chr2:49629323:49629324:+_ENSMUSG00000026764_ENSMUST00000028102|mus_hu|FALSE|FALSE (ssRNA)
RNA: GGGAGUUCUACAGUCCGACGAUCCAUUAUAUAUUUUAGUUCCCAGACAUAAAUCUUGAUAUCUCAAACAACAUUCUCCUAAUUUACCAAUCCACCAUCCUGCAGAUAAAGAUUAUUCAUAUAAACCAUCUGGCUGUUCUCUUACAACAGAGGAUUGAGCAUCA
B13: chr16:53361121:53361122:+_ENSG00000177200_ENST00000398510|hu_hu|FALSE|FALSE (ssRNA)
RNA: GGGAGUUCUACAGUCCGACGAUCAAACCUGAAACAAGGGCUAUAAAUACAAGGCAAUAACAGCUAUAAUUCUUUUAGUAACUACCAACACAUACUUGGAUAUUCUUUCAACUGCAACUUUAGUAUUAUGUAAUUCUACUGAUUCAACAGAGGAUUGAGCAUCA
B14: chr9:82769708:82769709:-_ENSMUSG00000032253_ENSMUST00000034787|mus_mus|motif|central (ssRNA)
RNA: GGGAGUUCUACAGUCCGACGAUCAAAAGCUUUUGUGGCUGAUGAUGUAGAGGGCUGCUCGGUGACAACUGGAUCGGCAGCGGCACGGUUGCUCCUAGUUCGAACCACAGAACUGGAUUCUGGUUUACCAUUCAUUUGCGCAGCCAACAGAGGAUUGAGCAUCA
B15: chr2:48035047:48035048:-_ENSG00000138081_ENST00000403359|hu_mus|motif|central (ssRNA)
RNA: GGGAGUUCUACAGUCCGACGAUCCAAAAUUGCAGCUUAUUUCUUCACUUCUGUCCCUUCAAAAGUCUUUACGCAGUAAUGCGGAAAUCCCGAGCUCUGACAUCCUGAGUCAAUCUAUUGCCACUUCCUUUUUGGUAGCUUGAGCAACAGAGGAUUGAGCAUCA
B16: chr14:76904430:76904431:+_ENSMUSG00000022010_ENSMUST00000022587|mus_mus|mus_mus_mus_hu_True|68_108 (ssRNA)
RNA: GGGAGUUCUACAGUCCGACGAUCUGCUGGAAAAAAAACCCUCGUGGAAAAAAAGAGGGAACACCAGCAGCCUGGUUUAAGCUAGAUAAAAUCUUCUGGCUUUCCGCAGCCCAGGGAGAAACAGAAAACGGCAGCCCUAAUUUACAACAGAGGAUUGAGCAUCA
B17: chr10:112364808:112364809:-_ENSMUSG00000074748_ENSMUST00000099276|mus_mus|FALSE|FALSE (ssRNA)
RNA: GGGAGUUCUACAGUCCGACGAUCCAGUAGGAUGGAAAGACAGGUCUUCUGAUGAGCCAAAGGCAAGGCCUUGUCCCCACAAAAUGCUGGACCUUUGGAAAACAGGUGAUUUGGAACUUCUUGAAGACAAGGGCACAAGGGCUUCAACAGAGGAUUGAGCAUCA
B18: chr1:157130520:157130521:-_ENSMUSG00000026469_ENSMUST00000027741|mus_hu|FALSE|FALSE (ssRNA)
RNA: GGGAGUUCUACAGUCCGACGAUCUGCGUUCAGGGGGGCCACAGAGAUGUCCCGCACAGCACGGAAUUCACCACAGUUAUUCAGAUGUUCAUUCUCCAGGCGGAAGAAGUUCCACACAAAUCGCCGGAAAACCUCAAGUGGGGCCAACAGAGGAUUGAGCAUCA
B19: chr14:76904568:76904569:+_ENSMUSG00000022010_ENSMUST00000022587|mus_hu|FALSE|FALSE (ssRNA)
RNA: GGGAGUUCUACAGUCCGACGAUCGUUUUCAGUCCCCAGCAAGGAUGACAAGAAAGAAAUUGAAAAAUGUCUCAGUUGGUAAACUCCUAGAUCCAUCGCCACUGGUCUACACCAUUGGGAUUUCAUGCAAUUGCAGCCAAAAACCAACAGAGGAUUGAGCAUCA
B20: chr2:198351390:198351391:-_ENSG00000144381_ENST00000345042|hu_hu|hu_hu_hu_mus_False|68_68 (ssRNA)
RNA: GGGAGUUCUACAGUCCGACGAUCUCAUUCCCACCCUCCACAGAAAGGCUGCUUCUGAACUCUCAUGGUGGUGGCAAGCGCUACAGUCCUGAUGCUCACAGAACAGUAGAGAUGCCUCAGUGAUUUAAGUUGAAAGCAGGACACCAACAGAGGAUUGAGCAUCA
B21: 121250362_121252434_672_CDS_ENSMUSG00000027248_ENSMUST00000028683|mouse|control|control (ssRNA)
RNA: GGGAGUUCUACAGUCCGACGAUCCACUGAGGCAUCUUUAUCACUAAUGAACUUCUUAAAUUCUUCCUCAGUCCUGAGAGGAACUGAAGCUGGUCCUGCUUGUUUCUUCAAGUGGCUGACAAUUCCAUCAGCAGUCCUAGGCCCCAACAGAGGAUUGAGCAUCA
B22: chr22:19452774:19452775:-_ENSG00000070010_ENST00000399523|hu_hu|hu_hu_hu_mus_False|48_68 (ssRNA)
RNA: B8 RNA with U27C, A33G, G72A

Each binder was assayed against T1, UNK ZnF1-3 (assay: nsRBNS (natural sequence RNA bind-n-seq); RBNS binding buffer (assumed for nsRBNS): 25 mM Tris pH 7.5, 150 mM KCl, 3 mM MgCl2, 0.01% Triton X-100, 500 ug/ml BSA, 20 U/ml SUPERase-In, 4 C; UNK is unkempt and MSI1 is Musashi-1; names of the RNAs are library labels; protein concentration not given here; high values mean tight binding).
Work on B1 yielded a binding signal of 1.12 enrichment R.
Binder B2 has a binding signal of 1.47 enrichment R.
Work on B3 yielded a binding signal of 0.881 enrichment R.
With B4 the binding signal was 1.23 enrichment R.
For B5, the binding signal was 2.67 enrichment R.
B6 showed a binding signal of 0.716 enrichment R.
B7 was tested, and the binding signal was 0.568 enrichment R.
For B8, the binding signal was 0.683 enrichment R.
For B9, the binding signal was 0.839 enrichment R.
B10 gave a binding signal of 1.51 enrichment R.
B11 gave a binding signal of 0.841 enrichment R.
With B12 the binding signal was 1.27 enrichment R.
Work on B13 yielded a binding signal of 1.05 enrichment R.
B14 showed a binding signal of 0.902 enrichment R.
B15 gave a binding signal of 0.508 enrichment R.
With B16 the binding signal was 1.72 enrichment R.
For B17, the binding signal was 1.39 enrichment R.
In the case of B18, the binding signal is reported as 1.18 enrichment R.
In the case of B19, the binding signal is reported as 1.4 enrichment R.
B20 showed a binding signal of 1.24 enrichment R.
Work on B21 yielded a binding signal of 0.835 enrichment R.
B22 showed a binding signal of 0.861 enrichment R.
